This note sets out measurements from article PMC7819943, “Rice protein-binding microarrays: a tool to detect cis-acting elements near promoter regions in rice”.

Some of the results follow.

The target of the experiment is T1, OsWOX13 (Oryza sativa, UniProt Q5QMM3 1-267).
T1 sequence: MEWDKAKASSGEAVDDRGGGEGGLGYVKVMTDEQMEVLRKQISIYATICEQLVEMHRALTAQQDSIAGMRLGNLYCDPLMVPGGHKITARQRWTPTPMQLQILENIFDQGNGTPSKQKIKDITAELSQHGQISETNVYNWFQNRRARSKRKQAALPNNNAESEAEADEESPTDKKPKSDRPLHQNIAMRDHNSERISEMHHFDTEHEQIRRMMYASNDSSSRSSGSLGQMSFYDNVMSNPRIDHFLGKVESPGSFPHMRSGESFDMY
As to the kind of experiment: protein-binding microarray (RPBM); PBS, 2% BSA, 51.3 ng/ul salmon testes DNA, 50 uM zinc acetate, 200 nM TF, 25 C, 1 h; high values mean tight binding. The following applies: protein: recombinant; tags: N-terminal polyhistidine and DsRed monomer fusion (pET32a); label: CyDye5-dUTP incorporated in the synthesized complementary strand; 3' TTTTT single-stranded linker to array surface; dsDNA, one strand shown. The gist of the method:
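The binding signal is fluorescence intensity per feature, in arbitrary units, read on an Axon 4000B scanner. Polyhistidine- and DsRed-tagged transcription factors (N-terminal fusions) from E. coli BL21-CodonPlus were purified on Ni–NTA and applied at 200 nM for 1 h at 25 °C to a double-stranded, BSA-blocked custom Agilent array in buffer with 50 µM zinc acetate.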
For the sequence “ATCAAATTGTTTGCTAGTGCCTCAACCTTCGTATACGAGACGGAGTCACCTAGTGCAG”, the binding signal is 4430 fluorescence intensity (a.u.).
Take “GCACAAACGTGATAAAATTGATTGGAAAATCATTTGCAACCGGAGTCACCTAGTGCAG”: the binding signal is 41700 fluorescence intensity (a.u.).
Regarding “GAATTATATTTGATTGAGGAAGTCAAACTACACCTTTTCCCGGAGTCACCTAGTGCAG”, the binding signal is 28600 fluorescence intensity (a.u.).
With “TTATATTGATTTTCGTATGATTTTGGACACATAAGTACCTCGGAGTCACCTAGTGCAG”, the binding signal was 38200 fluorescence intensity (a.u.).
Regarding “ATAATTGGCAAGCGGACTGTGAGAACTGGAAAGGGATTCGCGGAGTCACCTAGTGCAG”, the binding signal is 33500 fluorescence intensity (a.u.).
Turning to “TTAATTCCGAATTCCAATTATTTCTAGATTATATTCCTACCGGAGTCACCTAGTGCAG”, the binding signal is 4820 fluorescence intensity (a.u.).
Turning to “GACATGAATCACGTTGACTGCACAATTTATTTCTTTGTTCCGGAGTCACCTAGTGCAG”, the binding signal was 7350 fluorescence intensity (a.u.).
Regarding “AAGTACATTGATTAACACATATTCTACCAGTTTATATTGACGGAGTCACCTAGTGCAG”, the binding signal is 23700 fluorescence intensity (a.u.).
As for “ATATATATATATATATATATATATATATATATATATGTGGCGGAGTCACCTAGTGCAG”, the figure is 13800 fluorescence intensity (a.u.); as for “GTCTTCTGTTCTCAATTATCAATTTTGCTATAGCTCACTCCGGAGTCACCTAGTGCAG”, 10500 fluorescence intensity (a.u.); as for “CAATATTCAATTATGGATTTAATTAACTAATTTAATGTTACGGAGTCACCTAGTGCAG”, 32700 fluorescence intensity (a.u.).
As for “CCCATCATTTTGTTCTTGACAGATATACAAATAAGATGAGCGGAGTCACCTAGTGCAG”, the binding signal is 7430 fluorescence intensity (a.u.).
For the sequence “TCTTAAATTTACACATCTAAAGTTTATACACCTAGAGTTTCGGAGTCACCTAGTGCAG”, the binding signal was 10400 fluorescence intensity (a.u.).
Regarding “CACTGACGAGAGATTTGAAATGCTAGATCAAACTCATCGACGGAGTCACCTAGTGCAG”, the binding signal is 8480 fluorescence intensity (a.u.).
“CATAGATTATTATATTACGAGACGGATGGAGTACATCATCCGGAGTCACCTAGTGCAG”: the binding signal was 3150 fluorescence intensity (a.u.).
Then “TTTGATGGAGTGAAAAGAACAAATTAATAACCATTAAGCCCGGAGTCACCTAGTGCAG”, with 14000 fluorescence intensity (a.u.); and “GGAGGCTGATTAACCGGTAAGTAGAATCCTACTATTGTATCGGAGTCACCTAGTGCAG”, with 8000 fluorescence intensity (a.u.).
“AATAATTAACATATATGTGCATGCATGTCTATGTGCACGCCGGAGTCACCTAGTGCAG”: the binding signal is 31500 fluorescence intensity (a.u.).
Then “TTGCTGACTGGAAAGATACTCACTACACACTGCATCTCTACGGAGTCACCTAGTGCAG”, with 7630 fluorescence intensity (a.u.).
As to “AATGAATTTAGATAGATATATATGTATAGATTCATTCATACGGAGTCACCTAGTGCAG”, the binding signal is 4710 fluorescence intensity (a.u.).
As to “TCTGTAATCACATCAGTCCTTTCTGTCGCGTAGTACGCCTCGGAGTCACCTAGTGCAG”, the binding signal is 4130 fluorescence intensity (a.u.).
Take “ATTTAATAATGTTGTTAACTTGCCAAAATTTTAGCATTACCGGAGTCACCTAGTGCAG”: the binding signal was 5980 fluorescence intensity (a.u.).
Regarding “GGGAAATCATTTCCCTAACTCATTAGCCAAACAAGACCTTCGGAGTCACCTAGTGCAG”, the binding signal is 3570 fluorescence intensity (a.u.).
Then “AAAATTTACGTAATTATAATTTATTTTGTTATGAGTTGTTCGGAGTCACCTAGTGCAG”, with 37800 fluorescence intensity (a.u.); and “AATATTATAATCTAAATTTGTGAGAGATCGAATCACACAACGGAGTCACCTAGTGCAG”, with 3170 fluorescence intensity (a.u.); and “AATCATTGATTTATATGAGAAGCCGCAAATAACTAGACACCGGAGTCACCTAGTGCAG”, with 27100 fluorescence intensity (a.u.).
For the sequence “GATTTAAGTAATTATTAATTCTGTTACTATCATTTGATTCCGGAGTCACCTAGTGCAG”, the binding signal was 10800 fluorescence intensity (a.u.).
Then “CATGATAGACGAAGCTGATCTTTGGAGGCTGGCTAGGGCTCGGAGTCACCTAGTGCAG”, with 30800 fluorescence intensity (a.u.).
As for “TTGCAATTAGCCTTTGACTGCTTCTTCTTCTTCCACTTGCCGGAGTCACCTAGTGCAG”, the figure is 16600 fluorescence intensity (a.u.).
With “GCTTCAAATTAGCTTTTGACTTAATAGTACAAAAGTGGCTCGGAGTCACCTAGTGCAG”, the binding signal was 10500 fluorescence intensity (a.u.).
“ATATGATTGGCGAGCTATATCTTCTCTTATTGTTTGTGTCCGGAGTCACCTAGTGCAG”: the binding signal was 51900 fluorescence intensity (a.u.).
Regarding “ACTAGTTTCAATTATTAAATTGATGGCTCTTGCACTGTCACGGAGTCACCTAGTGCAG”, the binding signal was 21900 fluorescence intensity (a.u.).
With “ATTTGATAGAATACGTGAACTGAATTGAGTGGAGCATGTCCGGAGTCACCTAGTGCAG”, the binding signal is 20900 fluorescence intensity (a.u.).
Turning to “TTAATTAGACTGACATGTGGGGTCCGCGTGGGTCCCACCACGGAGTCACCTAGTGCAG”, the binding signal is 20200 fluorescence intensity (a.u.).
“GATAATATTTAATTTTGTTGACATATTTTACCAGAAAGAACGGAGTCACCTAGTGCAG”: the binding signal was 7680 fluorescence intensity (a.u.).
As for “CCGTGCTTCCACTAACTAATTAATTAATTTTGAACCTCTACGGAGTCACCTAGTGCAG”, the figure is 10600 fluorescence intensity (a.u.).
On to “TTAATTAATTAATTAATTAATCAATTAGTATGTATAGTGACGGAGTCACCTAGTGCAG”, for which the binding signal is 45500 fluorescence intensity (a.u.).
For “AAAACTAATTACACAGATTGTGTGTAAATTGCGAAACATTCGGAGTCACCTAGTGCAG”, the binding signal is 22000 fluorescence intensity (a.u.).
With “AAGCATTGATTAGTCAACCTTTTCCAAAGAAAAGCAACATCGGAGTCACCTAGTGCAG”, the binding signal was 15600 fluorescence intensity (a.u.).
Take “AAGGAGAGGATTGAGGAGATTGAGAAGATACGCAAAACGACGGAGTCACCTAGTGCAG”: the binding signal was 5770 fluorescence intensity (a.u.).
As to “ATGGCTGGGTTGATTGATATGGAGTACAAACTAAGTGTAGCGGAGTCACCTAGTGCAG”, the binding signal was 25000 fluorescence intensity (a.u.).
As to “ACTCAGTATACACTAATTAGCAATTATTACCGAAATTGTACGGAGTCACCTAGTGCAG”, the binding signal was 23400 fluorescence intensity (a.u.).
